# In paper PMC12136788:
# Some of the results follow.
# T1: UNK ZnF1-3 (human, UniProt Q9C0B0 31-174)
# T1 sequence: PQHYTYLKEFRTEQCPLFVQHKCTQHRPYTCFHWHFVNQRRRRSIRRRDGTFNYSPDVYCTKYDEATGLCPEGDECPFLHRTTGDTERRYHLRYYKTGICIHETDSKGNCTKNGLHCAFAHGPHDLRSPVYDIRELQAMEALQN
# B1: 54837271_54837391_707_CDS_ENSG00000102316_ENST00000375058|human|control|control (ssRNA)
# RNA: GGGAGUUCUACAGUCCGACGAUCCCAAAAGGCUAUGGGACCCCUUGAAGCCCUGCGGGCCAUUGAGGCCAUUAGGGCCUUUGAGACCCUUCGGCCACCUGUGGUUCCAGAAGCCUGACUCUGAUCACUGCUGCCAUCCUCUUCCAACAGAGGAUUGAGCAUCA
# B2: chr18:5290039:5290040:-_ENSG00000198081_ENST00000357006|hu_mus|FALSE|FALSE (ssRNA)
# RNA: GGGAGUUCUACAGUCCGACGAUCGUCACGAUUUCAAGACCUAGGGGUUUUUUGUAUCUGUGAAAACCUUGUGUCAGACUCUUCUCCUGUCGAUGCUGGUCCAUUGCACGGACACACACAGACAGCAUGGCCACACUGAAUGAACAACAGAGGAUUGAGCAUCA
# B3: chr20:57415074:57415075:+_ENSG00000087460_ENST00000313949|hu_hu|FALSE|FALSE (ssRNA)
# RNA: GGGAGUUCUACAGUCCGACGAUCUCUGCAGAGAGUGGCUCCGAAGCACAUUGGCUGCUGGAGCCGGGAAAGGUACACCCUAUGAGGUGAGAAGCUGGCCCGGAGGUCCCAGCCUCACCUCCUUGUGAGGAGAAAAAGGGAAGCCAACAGAGGAUUGAGCAUCA
# B4: chr5:143667385:143667386:-_ENSMUSG00000029580_ENSMUST00000171419|mus_mus|motif|central (ssRNA)
# RNA: GGGAGUUCUACAGUCCGACGAUCCGACCAGCGCAGCGAUAUCGUCAUCCAUGGCGAACUAUCAAGACACAAAAGAAGGCGGUAGUCACCUCGGGGCCGCCAAGAGCAGCCGCUGCCGCCCUGCCCACUUCCGGCAAGCCGCGGCAACAGAGGAUUGAGCAUCA
# B5: 76996067_76996997_2454_CDS_ENSMUSG00000036435_ENSMUST00000113493|mouse|control|control (ssRNA)
# RNA: GGGAGUUCUACAGUCCGACGAUCGAAAUGAUUUAGCUUUUCAAGGGGCUGUCCUAAAGAGUAAAUGACGUAGGACUGAAGGUGAUCCGUGUACUUCUGCUUGGCUUCUUUCUUCUCAGCUUCAAGACAUGAGAUUUUCAGACGCAACAGAGGAUUGAGCAUCA
# B6: chr9:113799110:113799111:+_ENSMUSG00000033392_ENSMUST00000111838|mus_hu|FALSE|FALSE (ssRNA)
# RNA: GGGAGUUCUACAGUCCGACGAUCCAGCAGUACAAACAACCAAUCUUGAAGAUCAUCUUUGUGGACUUGUAUGAAAUCCACUAGAGUCUCCAAAAACAUGCUGAAUACUCUCUUGCCAUGAGGGUCAGCAAACAUUCUUGUGAACAACAGAGGAUUGAGCAUCA
# B7: chr1:213178640:213178641:-_ENSG00000174606_ENST00000366962|hu_hu|motif|central (ssRNA)
# RNA: GGGAGUUCUACAGUCCGACGAUCUGCUACGCAGAUUGCAGGGCAGGCAGCAUAUGGAAUUUUGGGCUGUAAGAGUAAAACGGAUCCAACAUUGUCUCUGUCCAACAGAGAAAUAUCAGGGCGGAAGAAUUCCACUGGGUUCACCAACAGAGGAUUGAGCAUCA
# B8: 100336325_100340262_1318_CDS_ENSG00000162688_ENST00000361915|human|control|control (ssRNA)
# RNA: GGGAGUUCUACAGUCCGACGAUCCUUGGUUACUCGCCUAUUUUCUUGUGUAAGAAGUCUUCUAAAUUGCUCAACCGCUUUGUUGACAUCUACUUGGAAAAAUUCCCAGAGUUUAAGCUUUGGAAAAAUAUCCUCCCAAAUUAUCAACAGAGGAUUGAGCAUCA
# B9: chr1:133183185:133183186:-_ENSMUSG00000026425_ENSMUST00000097588|mus_mus|FALSE|FALSE (ssRNA)
# RNA: GGGAGUUCUACAGUCCGACGAUCGCUGAGUGAGUCUUAGGUUCGCACAAAGCAUCUUCAAGCAUACAUACAAUAUUCCAGUUAUCAACACCAUUUUAAAGAACAUACCAUUUUACACAAAUGUGACAUACAAAUCAGACGCCACAACAGAGGAUUGAGCAUCA
# B10: chr4:17845017:17845018:+_ENSG00000109805_ENST00000514176|hu_mus|hu_hu_hu_mus_False|68_98 (ssRNA)
# RNA: GGGAGUUCUACAGUCCGACGAUCGCUCUCUUAACUUGAUCUUCAUUUAAGGAACUCUGCAAGGUUAGUUUACUUUUUCUGUAGCGCAGCUGUUUUGGCUCGUCUGGGUAAUCUCAUCUUCAUUUCUGAUGGUGGUUCAUGAUCCAACAGAGGAUUGAGCAUCA
# B11: chr12:48362563:48362564:+_ENSG00000134291_ENST00000256686|hu_hu|hu_hu_hu_mus_False|38_48 (ssRNA)
# RNA: GGGAGUUCUACAGUCCGACGAUCUCCGUCAAGCCCUUCGAUAGACCCUUGCGGGGGAAACUGUAAUCACUUUGUAUGGGGAAGGAAAAAAAAAGCCAACACACUUUCAAAAAGCGGGGGUGGGGUGAGGCGGGAGGGGGAGGUCAACAGAGGAUUGAGCAUCA
# B12: chr9:54997157:54997158:+_ENSMUSG00000032307_ENSMUST00000059555|mus_mus|FALSE|FALSE (ssRNA)
# RNA: GGGAGUUCUACAGUCCGACGAUCCGGCUGCUGCCUUUGUAACCGACUCCACCCGCAGGAGGCGGUGGCCCCGCGGCUUAAAAGGGCAACAGCGACGCCGCCCCCACCGCCGCCUGGGAGAGGGCUGCCCCCGCCCCGGCGCGCCAACAGAGGAUUGAGCAUCA
# B13: chr1:171484892:171484893:+_ENSG00000117523_ENST00000367742|hu_hu|FALSE|FALSE (ssRNA)
# RNA: GGGAGUUCUACAGUCCGACGAUCUUUUUUUUCCUGAUCCCCAGCUGCCUGCAGGCUGGGAAAUUCUUGCUGAAACUGACUAUUCACUUGGAUUCCAUCUCCUUGCCCACCUUGCUUGUUACUGGCCCAUGAUUUGGGAGCAGGCAACAGAGGAUUGAGCAUCA
# B14: chr7:149068622:149068623:-_ENSMUSG00000025139_ENSMUST00000001950|mus_hu|mus_mus_mus_hu_False|18_108 (ssRNA)
# RNA: GGGAGUUCUACAGUCCGACGAUCGUGCAGGUACUGAGUGUGGCUUGUGGUCUGUCCUGGGUUAGAGUUGUUAAUAUCACGGAACAUACCAUCUAGAACGUUCCAGUCCCGCCUGACCAUCCACCCUCCAAUGGAGAAGAAAUCCAACAGAGGAUUGAGCAUCA
# B15: chr4:95690885:95690886:+_ENSMUSG00000028572_ENSMUST00000156910|mus_mus|motif|central (ssRNA)
# RNA: GGGAGUUCUACAGUCCGACGAUCAUAAUUUUUAGAAAAUGUUAAAUAGCAUGCUAAGUAAUUUUAAAGUCUUAUUUUACGGAAAGACACAGGCAAGCAGACACCAUAAACAUACAAAAAUACAAACCAACAGUGUAAAAUGUACAACAGAGGAUUGAGCAUCA
# B16: 27872824_27873996_4813_CDS_ENSMUSG00000026837_ENSMUST00000028280|mouse|control|control (ssRNA)
# RNA: GGGAGUUCUACAGUCCGACGAUCCGGAGGGCCGAUGAGUCCAAUCAGGCCUGGAUGGCCCUUUUCACCUUUGGGACCGGAGUCUCCUUUGAGGCCAGGGAGUCCUGGAGGACCCAUGGGGCCGGGUGGACCAUCGGGGCCUGGCAACAGAGGAUUGAGCAUCA
# B17: chr3:160249337:160249338:-_ENSG00000186432_ENST00000334256|hu_hu|FALSE|FALSE (ssRNA)
# RNA: GGGAGUUCUACAGUCCGACGAUCGGGCAAUAUUCCAGAUUUUAUUAAGUCAUCAAUUGGUGGAUUUCGAUCACUGGACAAAAGCUUCCUAGCAGCUUGAACUGCACUUAAUUGAAUUCCUUGGUUAUCACUUGAAGCAUUUUGCAACAGAGGAUUGAGCAUCA
# B18: chr10:36854569:36854570:-_ENSMUSG00000069662_ENSMUST00000092584|mus_hu|motif|central (ssRNA)
# RNA: GGGAGUUCUACAGUCCGACGAUCAGAACCACAAUAAAAUUUACUCCUGAUGGCAUGCAAGAUCUUCCUAAAAAUUAACCGGAGACCGGGAAGUCUCAGUAUUAUUAGAACAUAAAAAAACACAACAAAUUUGUACAUUUUAUUCAACAGAGGAUUGAGCAUCA
# B19: 36555558_36557150_1177_CDS_ENSMUSG00000032116_ENSMUST00000120381|mouse|control|control (ssRNA)
# RNA: GGGAGUUCUACAGUCCGACGAUCGGUUGUGGGCUGGUGCUCAGAAACAGAUGCAAUAAUGGGAAUGUUAUUCUUAGCAUAAGAGGGAUCCAGCAGAGAGUAGAAACGCCCUGUCCAGGGAGAAAUUUUUCCUGUUAGCAUGAGCAACAGAGGAUUGAGCAUCA
# B20: chr9:5785663:5785664:-_ENSG00000099219_ENST00000339450|hu_hu|motif|central (ssRNA)
# RNA: GGGAGUUCUACAGUCCGACGAUCGAGACAAGCAGCUUCAAGGACGUUUUCUCCGGCAAUGCAUACUUACUGUGCUCUUUCGGUUCAGACAGAUCCACAGACCACCUUUCAAGAGCAUUCCUCUCUCAUUUCCUCCAUCACCCACAACAGAGGAUUGAGCAUCA
# B21: chr6:160170297:160170298:+_ENSG00000146457_ENST00000337387|hu_hu|FALSE|FALSE (ssRNA)
# RNA: GGGAGUUCUACAGUCCGACGAUCCAAAGCUCUUUUAAACAUGUGCCUGUUGAAUGGAACGGGGAUUUCAUAAAAUUCACUAAAAAAAAUAAUGCAGUGAGUCUCAUCACAGCUAAUAUCCUUAUACAAUCUAGUUGUGAAAUGCAACAGAGGAUUGAGCAUCA
# B22: chr2:179515052:179515053:+_ENSMUSG00000000305_ENSMUST00000000314|mus_hu|mus_mus_mus_hu_False|58_68 (ssRNA)
# RNA: GGGAGUUCUACAGUCCGACGAUCGCUGUCCCAUGCAGUCACCGUGAACGCCACCUGCUCGGAGGGGAUCUUCAACUCCCUAGUGGCGAAGACUGUCCCAUCUGCCCCAACUUUGAAGUCCAUGCUGUUGGUCUCAUAUUGUGUCAACAGAGGAUUGAGCAUCA
# Target: T1, UNK ZnF1-3
# Assay: nsRBNS (natural sequence RNA bind-n-seq); RBNS binding buffer (assumed for nsRBNS): 25 mM Tris pH 7.5, 150 mM KCl, 3 mM MgCl2, 0.01% Triton X-100, 500 ug/ml BSA, 20 U/ml SUPERase-In, 4 C; UNK is unkempt and MSI1 is Musashi-1; names of the RNAs are library labels; protein concentration not given here; high values mean tight binding
row,Binder,binding signal [enrichment R]
1,B1,0.729
2,B2,0.718
3,B3,0.813
4,B4,0.702
5,B5,0.825
6,B6,0.808
7,B7,1.55
8,B8,0.569
9,B9,1.16
10,B10,0.348
11,B11,2.33
12,B12,0.554
13,B13,0.677
14,B14,0.953
15,B15,2.47
16,B16,0.471
17,B17,1.05
18,B18,1.97
19,B19,1.69
20,B20,1.12
21,B21,0.725
22,B22,0.727
